Among the data in PubChem BioAssay AID463173 (ICCB-Longwood Screening Facility, Harvard Medical School, 2010) are survival values, retold here.

In all, about 52,000 compounds went through this assay and about 4,300 (8.3%) were called active. Rule as the data show it: active = survival mostly below about 52% (no sharp cut-off); inactive = mostly above about 56%. Some of the results follow.

The test system of this assay is DeltatarO mutant. Put plainly: S. aureus survival, RN4220 and DeltatarO strains – OD600, teichoic acid synthesis inhibitors, primary screen (AID 463173). Conditions: S. aureus RN4220 wild type/DeltatarO growth, OD600, 18 h, stronger effect = lower value, screened at 18.75 µg/mL (by protocol).
As for `Cc1cccc(C)c1OCC(=O)N(Cc1ccco1)Cc1ccco1`, the survival is inactive: 63%.
Consider `Cc1ccc2c(=O)cc(CSc3ncn[nH]3)[nH]c2c1C`, for which the survival is inactive: 78%.
On to `CCOC(=O)c1c(C)[nH]c(C)c1S(=O)(=O)N1CCC(C(=O)N2CCN(c3ccc(F)cc3)CC2)CC1`, for which the survival was inactive: 67%.
In the case of `CCn1cc(C(=O)N2CCN(c3cccc(Cl)c3)CC2)c(=O)c2cc(S(=O)(=O)N3CCC(C)CC3)ccc21` it was inactive: 91%; in that of `O/N=C1\CCCCC1C1=CCCCC1` (stereo unspecified), inactive: 116%; in that of `Cc1ccc2nc(NC(=O)c3ccc(S(=O)(=O)N4CCC(C)CC4)cc3)sc2c1`, inactive: 93%.
In the case of `Cc1nn2c(C)c(C(=O)N3CCN(c4ccc(Cl)cc4)CC3)cnc2c1-c1ccc(F)cc1` it was inactive: 88%; in that of `CN(C)c1ccc(C(=O)N2CCN(c3ccccc3)CC2)cc1`, inactive: 66%; in that of `COc1cc2c(cc1OC)n(CC(=O)c1ccc(C)cc1C)c(=O)n1nc(CCn3nc(C)cc3C)nc21`, inactive: 67%.
With `O=S(=O)(c1ccc(-c2cnc(C3CC3)o2)cc1)N1CCN(c2ccccc2F)CC1`, the survival was inactive: 87%.
In the case of `CCOc1ccc(C2=CSC3=NCCN23)cc1Cl`, the survival is inactive: 93%.
Take `O=C(NCCCN1CCN(c2cccc(Cl)c2)CC1)c1ccc2nc(Cc3ccccc3)oc2c1`: the survival was inactive: 102%.
As to `COc1ccc(NC(=O)c2cc(-c3ccccc3F)no2)cc1`, the survival is inactive: 78%.
As to `Cc1cccc(Nc2sc(C(=O)c3ccc(Cl)cc3)c(N)c2C(N)=O)c1`, the survival was inactive: 63%.
Under `COc1cccc(CNC(=O)Cn2nc(C)c3sc4ccccc4c3c2=O)c1OC` stands inactive: 87%; under `O=C(Nc1ccccc1)Nc1nnc(SCC(=O)N2CCCCC2)s1`, inactive: 135%.
For `Cc1ccc(N2C(=O)CSC23C(=O)N(CC(=O)NCc2ccccc2)c2ccccc23)cc1` (stereo unspecified), the survival is inactive: 98%.
On to `COc1ccc(C2(C(=O)O)CCCC2)cc1OC`, for which the survival is inactive: 107%.
Take `CCOc1ccc(-n2cc(-c3ccccc3)c3c(NC4CCCC4)ncnc32)cc1`: the survival is inactive: 104%.
In the case of `O=C(CN1C(=O)C2(SCC(=O)N2c2ccc(F)cc2)c2ccccc21)NC1CCCCC1` (stereo unspecified), the survival is inactive: 80%.
For `CC1=C(c2ccc(C)c(C)c2)S(=O)(=O)N(Cc2ccc(C(=O)Nc3cc(F)ccc3F)cc2)C1=O`, the survival was inactive: 84%.
Turning to `NC1=NC2(CCCCC2)N(c2ccc(F)cc2)C(N)=N1`, the survival was inactive: 88%.
With `Cc1ccc(N2CC(NC(=O)c3cccs3)CC2=O)cc1` (stereo unspecified), the survival was inactive: 94%.
In the case of `CCc1cccc(CC)c1NC(=O)c1c(C)oc2ccc(O)c(CN3CCCC3)c12` it was inactive: 113%; in that of `CCCCNC(=O)c1ccc2c(c1)N=C(CC)c1ccccc1S2`, inactive: 70%; in that of `O=C(CCCN1C(=O)c2cccnc2Oc2ccc(Cl)cc21)NCc1ccc(F)cc1`, inactive: 90%.
For `CN1CCN(CCNC(=O)c2cnn(-c3ccc(F)cc3)c2C2CCN(C(=O)OC(C)(C)C)CC2)CC1`, the survival was inactive: 86%.
Under `O=C1C(=O)N(C2CCN(C(=O)c3cccc(Cl)c3)CC2)CCN1Cc1ccc(F)cc1` stands inactive: 80%; under `CCOc1ccc(S(=O)(=O)N2CCN(Cc3nc4ccc(C)cc4o3)CC2)cc1`, inactive: 73%; under `CCOc1ccc(NC(=O)c2cnc3sc(N4CCOCC4)nn3c2=O)cc1`, inactive: 97%.
With `COc1cccc(N2CC(NC(=O)COc3ccccc3F)CC2=O)c1` (stereo unspecified), the survival was inactive: 72%.
Under `Cc1ccc(C)c(NC(=O)CSc2ccc3nc(-c4ccccc4)cn3n2)c1` stands inactive: 90%; under `CCOc1ccc(CCNC(=O)Cn2c(-c3cccs3)cc3ccccc32)cc1OCC`, inactive: 67%; under `O=C(Nc1cccc(C(=O)OCc2cc(=O)n3nc(C4CC4)sc3n2)c1)c1cccc(Cl)c1`, inactive: 80%.
Regarding `COc1ccc(Nc2oc(/C=C/c3ccccc3OC)nc2C#N)cc1`, the survival was inactive: 79%.
Consider `COC(=O)CCN(c1ccccc1)C(CNS(=O)(=O)c1ccccc1)c1ccccc1` (stereo unspecified), for which the survival was inactive: 111%.
On to `CS(=O)(=O)N(CC(=O)N1CCC(C(N)=O)CC1)c1cccc(C(F)(F)F)c1`, for which the survival is inactive: 76%.
Take `Cc1ccccc1Nc1nc(N)c(C(=O)c2ccccc2Cl)s1`: the survival was inactive: 92%.
In the case of `Cc1cc2oc(C(=O)N(Cc3ccc(N(C)C)cc3)Cc3ccco3)c(C)c2cc1Cl`, the survival is inactive: 84%.
Turning to `CCCCc1ccc(NC(=O)CSc2nc(=O)[nH]c3c2CCCC3)cc1`, the survival was inactive: 74%.
On to `CCn1c(SCC(=O)N2CCc3ccccc32)nnc1C(C)C`, for which the survival was inactive: 98%.
For `COc1cccc(-c2cc(C(=O)NCc3ccc(F)cc3)no2)c1`, the survival was active: 30%.
In the case of `COc1cccc(CNC(=O)CCn2cnc3ccccc3c2=O)c1` it was inactive: 77%.
Turning to `CC(CCc1ccccc1)NC(=O)Cn1ncc2c3ccccc3n(Cc3ccccc3)c2c1=O` (stereo unspecified), the survival is inactive: 81%.
In the case of `O=C(CCN1C(=O)c2ccccc2Sc2ncccc21)Nc1ccc(F)cc1`, the survival was inactive: 80%.
With `CCOC(=O)c1ccc(NC(=O)c2oc3c(c2C)-c2nn(Cc4ccccc4Cl)cc2CC3)cc1`, the survival is inactive: 68%.
Under `CC(C)CNc1ncnc2onc(-c3ccc(Cl)cc3)c12` stands inactive: 71%.
As for `COc1ccc(-c2nnc(SCC(=O)Nc3c(C)cccc3C)nc2-c2ccc(OC)cc2)cc1`, the survival is inactive: 92%.
As for `CS(=O)(=O)N(CCc1ccccc1)CC(=O)O`, the survival is inactive: 88%.
For the compound `Cc1nc2cc(-c3cccc(F)c3)nn2c(C)c1CCC(=O)NC(C)c1ccccc1` (stereo unspecified), the survival was inactive: 53%.
For `COc1cc(C(=O)NCCc2sc(-c3cccc(F)c3)nc2C)cc(OC)c1OC`, the survival was inactive: 78%.
In the case of `O=C(Nc1ccccc1Br)c1cc(CN2CCCC2)on1`, the survival was inactive: 73%.
Under `COC(=O)c1c(NC(=O)C2c3ccccc3Oc3ccccc32)sc2c1CCC(C(C)(C)C)C2` (stereo unspecified) stands inactive: 78%.
Under `COc1cc2c(cc1NC(=O)c1ccccc1C)n(C)c(=O)n2C` stands inactive: 65%.
Turning to `O=C(CSc1oc(-c2ccc(F)cc2)nc1S(=O)(=O)c1ccccc1)NC1CCCCC1`, the survival was inactive: 61%.
With `CCSc1nnc(NC(=O)c2cc(=O)c3cc(C)ccc3o2)s1`, the survival was inactive: 86%.
As for `CCc1ccc(CNC(=O)c2ccc(-c3nc(CSc4ccc(C)cc4)c(C)o3)cc2)cc1`, the survival was inactive: 67%.
In the case of `CCc1ccccc1-n1cnc2cc(C(=O)NC3CCCCCC3)ccc21` it was inactive: 49%.
On to `O=C(Nc1ccccc1Cl)[C@H](CSCc1ccccc1)N1Cc2ccccc2C1=O`, for which the survival is inactive: 58%.
Turning to `COc1ccccc1N1CCN(S(=O)(=O)c2ccc(F)c(C(=O)Nc3ccc(Cl)cc3C(F)(F)F)c2)CC1`, the survival is inactive: 126%.
`O=C(c1ccc2c(c1)CCN2S(=O)(=O)c1ccccc1)N1CCN(c2ccccc2F)CC1`: the survival was inactive: 52%.
On to `CCc1ccc2occ(CC(=O)Nc3ccc(OC)c(Cl)c3)c2c1`, for which the survival was inactive: 88%.
`CCOc1ccc(C(=O)Oc2c(Sc3ccccc3)c(C)nn2C(C)(C)C)cc1OCC`: the survival is inactive: 57%.
In the case of `Cc1nc(SCC(=O)Nc2ccc(C)c(Cl)c2)cc(-c2ccccc2)n1`, the survival was inactive: 46%.
Under `COc1ccc(CN(Cc2ccco2)C(=O)COc2ccccc2OC)cc1` stands inactive: 74%.
With `CC(=O)c1ccc(NC(=O)Nc2sc3nc4n(c(=O)c3c2C)CCC(C)CC4)cc1` (stereo unspecified), the survival is inactive: 78%.
Under `CC(C)Oc1ccc(CNC(=O)c2sc3ncccc3c2-n2cccc2)cc1` stands active: 46%; under `COc1ccc(-n2nc(C(=O)Nc3ccc(C(C)=O)cc3)nc2-c2ccccc2)cc1`, active: 49%.
Consider `COc1ccc(-c2nnc(SC(C)C(=O)O)o2)cc1` (stereo unspecified), for which the survival is inactive: 148%.
Turning to `CSc1ccc(-c2nc3cccc(C)n3c2Nc2ccc3c(c2)OCO3)cc1`, the survival was inactive: 83%.
For the compound `O=C(CN1C(=O)CSc2ccc(S(=O)(=O)N3CCCC3)cc21)NCc1ccccc1Cl`, the survival was inactive: 87%.
For `CC1(C)Cc2ccccc2C(=NCCC(=O)O)N1`, the survival is inactive: 79%.
Under `CCCCNC(=O)CCc1c(C)nc2cc(-c3ccccc3)nn2c1C` stands inactive: 81%; under `CS(=O)(=O)Nc1ccc(C2=NN(S(C)(=O)=O)C(c3ccc4c(c3)OCO4)C2)cc1` (stereo unspecified), inactive: 77%; under `CC(=O)N1CCCc2cc(S(=O)(=O)N3CCCC(C(=O)NC(C)C)C3)ccc21` (stereo unspecified), inactive: 79%.
With `Cc1ccc(OCC(=O)Nc2c(C(=O)c3ccc(Cl)cc3)oc3ccccc23)cc1C`, the survival is inactive: 119%.
Under `Cc1[nH]c2ccccc2c1C1(O)C(=O)N(Cc2ccccc2)c2ccc(Cl)cc21` (stereo unspecified) stands active: 24%; under `Cc1cc(C)cc(OCCSc2nc3ccc(NC(=O)COc4ccccc4)cc3s2)c1`, inactive: 58%.
As to `Cc1ccc(OCC(=O)Nc2nonc2-c2ccc(Br)cc2)cc1C`, the survival is inactive: 57%.
For the compound `COc1ccc(-c2nnc(SCCOc3ccccc3C)o2)cc1OC`, the survival is inactive: 64%.
As for `Cc1cn(C)c(CC(=O)Nc2ccc(F)cc2Cl)c1C(=O)O`, the survival was inactive: 87%.
`O=S(=O)(c1ccc(Cl)cc1)c1nc(-c2cccs2)oc1SCc1ccccc1F`: the survival is inactive: 66%.
Regarding `Cc1cc(C(F)F)n2ncc(C(=O)N3CCCCC3)c2n1`, the survival was inactive: 85%.
On to `O=C(COc1ccccc1)N/N=C/c1ccccc1`, for which the survival was inactive: 86%.
Consider `CCc1ccc(NC(=O)Cn2c(=O)n(CCCC(=O)NCc3ccc4c(c3)OCO4)c(=O)c3ccccc32)cc1`, for which the survival was active: 93%.
Under `CCS(=O)(=O)NCC(c1ccco1)N1CCN(c2ccc(F)cc2)CC1` (stereo unspecified) stands inactive: 71%; under `CCOC(=O)c1c(S(=O)(=O)N2CCCC(C(=O)N3CCN(c4cc(C)ccc4C)CC3)C2)c(C)n(C)c1C` (stereo unspecified), inactive: 83%.
Turning to `Cc1ccc2c(c1)N(Cc1cccc(C(F)(F)F)c1)C(=O)C(C)O2` (stereo unspecified), the survival is inactive: 105%.
Under `CCn1c(SCC(=O)c2ccc(C)cc2)nnc1C1CC1` stands inactive: 66%; under `CCOC(=O)C(CC)N1CCN(Cc2ccc(F)cc2)C(=O)C1=O` (stereo unspecified), inactive: 85%; under `COc1ccc(-c2ccc(NS(=O)(=O)c3cc(C)c(C)cc3C)cc2)nn1`, inactive: 83%.
